The values that follow come from the supplement of paper PMC11417369.

This is one part of the list.

For the experiment, the system named is PfHDP1 homeodomain (GST-tagged). Kind of experiment: gcPBM binding intensity (ln(normalized median fluorescence intensity)); higher = stronger DNA binding. In short, it runs like this:
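GST-tagged P. falciparum DNA-binding domains, expressed in E. coli (about 25 μg on average), were applied for 1 h to an Agilent 4 × 180k array of primer-extended double-stranded 36-bp intergenic genomic probes plus negative controls. The binding buffer was 1× PBS with 1% milk, 0.2 mg/ml BSA, 0.5% salmon testes DNA and 0.03% Triton X-100. Bound protein was detected with Alexa488 anti-GST antibody and scanned at 488 nm. Binding intensity is the highest Masliner-normalised natural-log median intensity across replicate spots of either probe orientation.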
As to “ATATATATATAGTGTTGTACATTTAAAAATAATATA [XGTACX_site2627]”, the “gcPBM binding intensity (ln)” value turned out to be 8.84.

For the sequence “TTTTTTATTAAAAGTAGTACACATGAAAAAAAAAAA [XGTACX_site5524]”, the “gcPBM binding intensity (ln)” value is 6.4. As for “ATTTTTATAGAAATATGTACACAATATGTATATATT [XGTACX_site7993]”, the “gcPBM binding intensity (ln)” value is 6.37.

As to “TTAATATAGATATAACCACACACATACATCTAATTC [CACACA_site8519]”, the “gcPBM binding intensity (ln)” value is 6.77. “TCTTTTATGCACATTGAGTAAACAACATATTTTTAA [TGCATGCA_negctrl_site561]”: the “gcPBM binding intensity (ln)” value worked out at 10.9.

As to “TTTAAAAAAATTCATGCACACGAAATAAAAAGCACC [CACACA_site8214]”, the “gcPBM binding intensity (ln)” value stood at 9.37. As for “TATATATAATTCATACATTTTAAATATATTTATTTA [CACACA_negctrl_site840]”, the “gcPBM binding intensity (ln)” value is 6.41. With “TTTTAAAAACGGCATGCATGTAATACATGGAAGGAA [TGCATGCA_site480]”, the “gcPBM binding intensity (ln)” value was 7.41.

TATAATAATATAATGGTGCATGTATATAACCATATA: the “gcPBM binding intensity (ln)” value came out at 8.84. On to “TTTGTTGACAGACACACACACATACATATATATATA [CACACA_site2288]”, for which the “gcPBM binding intensity (ln)” value stood at 8.79. For “GCTCTTTTGTTATGGTGTACCCTCCATGTAACATAA [XGTACX_site91]”, the “gcPBM binding intensity (ln)” value came out at 6.58. As to “TTAATAATTCTTAAAAGTACATAACTTTTTTTTTTT [XGTACX_site751]”, the “gcPBM binding intensity (ln)” value was 5.95. On to “AAATAAATATAAATAAATAAATAAATAAATATATAT [CACACA_negctrl_site827]”, for which the “gcPBM binding intensity (ln)” value was 6.28. “TTGTTCTATATATATGCATGCACGTATGTTAAATTA [TGCATGCA_site659]”: the “gcPBM binding intensity (ln)” value was found to be 8.06. On to “TATTAATTTTTATACGCATGTGTATAGTAATATATA [TGCATGCA_site1010]”, for which the “gcPBM binding intensity (ln)” value was 6.43. In the case of “TCTCATATATTGAATTGTACATATGTTAAAATATAG [XGTACX_site6764]”, the “gcPBM binding intensity (ln)” value came out at 6.58. On to “ATACAAAAGGGGAATACACACACATATATATATATA [CACACA_site8694]”, for which the “gcPBM binding intensity (ln)” value is 9.25. In the case of “AATAAACATAGATGTACACACATATACAGATATATA [CACACA_site5570]”, the “gcPBM binding intensity (ln)” value was 6.3. As to “TAAAGAATAATACATTCACACAATATTATAAAAATA [CACACA_site5986]”, the “gcPBM binding intensity (ln)” value worked out at 6.29.

As to “TTGTATGAATTTATTTTTATTGATAATTAATATGTA [TGCATGCA_negctrl_site143]”, the “gcPBM binding intensity (ln)” value was 6.11. Regarding “GAAATGTCATATAATAGTACACACATGAAAATATAA [XGTACX_site6838]”, the “gcPBM binding intensity (ln)” value is 6.69. Consider “TATGATTAATTACCACAATTGACAAAAAAAAAAAAA [CACACA_negctrl_site336]”, for which the “gcPBM binding intensity (ln)” value amounted to 6.19.

As for “AAAAATAAAGGATATACACACTAATTCTATAAATAT [CACACA_site7344]”, the “gcPBM binding intensity (ln)” value came to 6.4.

On to “TATAAGTATTAATACACACACAAAATAATAAAAAAA [CACACA_site3481]”, for which the “gcPBM binding intensity (ln)” value is 7.14. As for “GTCTCGATAATGAAAAGTACAAAATAAAAATAATAA [XGTACX_site6471]”, the “gcPBM binding intensity (ln)” value amounted to 6.71. For the sequence “AAGAGGTTAATGAAATGTACACATATATATATATAT [XGTACX_site1861]”, the “gcPBM binding intensity (ln)” value was 9.26. “TATAGTTTTGAAAACAAACACACAAAAAAAAAAAAA [CACACA_site1691]”: the “gcPBM binding intensity (ln)” value worked out at 6.31. For the sequence “TATGTAACCTGTTTTACACACCCCCACCCCCCTCTT [CACACA_site319]”, the “gcPBM binding intensity (ln)” value was 7.95. Consider “TTTTATAAATATTATACATGCATAATGATAAAAAAA [TGCATGCA_site927]”, for which the “gcPBM binding intensity (ln)” value amounted to 6.91.

TTTTTTTTCTATGTGGTGCACATTATTTTTTTTTTT: the “gcPBM binding intensity (ln)” value came out at 9.27.

With “ATAATTTCACAAATAGTGCAAAAATTAGTAAGAATA [GTGCAC_site9648]”, the “gcPBM binding intensity (ln)” value was found to be 9.31.

As to “AAAAAAAACAGACACACACACATACAAAATATATAT [CACACA_site1449]”, the “gcPBM binding intensity (ln)” value stood at 6.88. Consider “TTTAAATACAGACATACACACATACACAGACATATA [CACACA_site4460]”, for which the “gcPBM binding intensity (ln)” value was found to be 6.99. With “ATATTTTTATGTACTTCAAAAAAAAAGAAAAACAAA [CACACA_negctrl_site970]”, the “gcPBM binding intensity (ln)” value is 6.27. Turning to “CTCTATTGTTAAAAGGTGCTTTTATGATTTTATATA [GTGCAC_site9409]”, the “gcPBM binding intensity (ln)” value worked out at 6.58.

Turning to “TTAATATATTTTAAAAGTACATAATATTATTTTTTA [XGTACX_site3642]”, the “gcPBM binding intensity (ln)” value is 6.17. For “AAGAAAAGAACAAGAGCATGCACTTAATAAGAATAA [TGCATGCA_site818]”, the “gcPBM binding intensity (ln)” value stood at 8.75. For “ATATATATATATATATGTACTTATTTATTTATTTAT [XGTACX_site4645]”, the “gcPBM binding intensity (ln)” value was found to be 9.36.

For “ATATTTTACATATTTGCACACATATATTTATATACA [CACACA_site855]”, the “gcPBM binding intensity (ln)” value came out at 10.7. For “TAATATGTGGACTTTACACACTTGTTTTAAAATTCT [CACACA_site4605]”, the “gcPBM binding intensity (ln)” value amounted to 6.13.

With “ATATTAAAGATATATACACACATATTTATAAATATA [CACACA_site7127]”, the “gcPBM binding intensity (ln)” value was 6.57. Turning to “AAAATTTATGGAAGGTGTACTGTTAATTATGTATAT [XGTACX_site6446]”, the “gcPBM binding intensity (ln)” value turned out to be 6.58. As to “GAAGACAATTATATGTGTACATATATATACATATAT [XGTACX_site4630]”, the “gcPBM binding intensity (ln)” value worked out at 6.45. The result for “AGTAGATATTATTATAGTACTTTTTATTTTATATTT [XGTACX_site1551]” reads 6.2; that for “GGAATTCATATTAATTGTACATTTAAAGATAGATGA [XGTACX_site3279]”, 6.44. Regarding “ATATGATTAATTAAGTGTACGTATTTATAATTATAA [XGTACX_site5783]”, the “gcPBM binding intensity (ln)” value is 6.74. With “ATTACAATTTTAATAGTGCATTTTTATATATTTCTA [GTGCAC_site9918]” the figure was 8.93. With “TTTTTACTATAAGGGGAAAAAAAAAAAAATAATATA [XGTACX_negctrl_site279]”, the “gcPBM binding intensity (ln)” value amounted to 5.97. With “CAAGAAAAGAAACACACACACATATATATATATATA [CACACA_site3881]” the figure was 9.23; with “TAAACATATACACGTACATGCAACGGATTTTTTTTT [TGCATGCA_site70]”, 6.63.

In the case of “ATATAACTTTTAAAAGCATGCAAATATTTACTCAAT [TGCATGCA_site396]”, the “gcPBM binding intensity (ln)” value turned out to be 7.09. Consider “TATATATATATATGTGCACACATAATAAAAAAAAAA [CACACA_site3830]”, for which the “gcPBM binding intensity (ln)” value was 10.1.

As to “ATATAAAAATAATAGAGTACAAAAAAAAAATGTATA [XGTACX_site7054]”, the “gcPBM binding intensity (ln)” value came out at 6.7. With TGTATACATTATTAAGTGCAAGTAGGGAAAAAAAAA, the “gcPBM binding intensity (ln)” value turned out to be 8.27.

For “GATGATACGATTATCACACATTTATACTTTCTACAT [CACACA_site5669]”, the “gcPBM binding intensity (ln)” value was 6.34. “TTTATTTATCTTTACGCACACACTTGCATGTACAAA [CACACA_site1118]”: the “gcPBM binding intensity (ln)” value amounted to 8.22. Consider “TACCTACCTTTACGGAGTACACAATAATAGTTATAA [XGTACX_site6593]”, for which the “gcPBM binding intensity (ln)” value was found to be 6.7.
